Assay results reported in the RNAGym collection of RNA variant scans (doi:10.1093/nar/gkz1192).
Read counts are not given, so values of variants with three or more changes are uncertain.

B1: CPEB3 Ribozyme (parent)
chain: UAACAGGGGGCCACAGCAGAAGCGUUCACGUCGCAGCCCCUGUCAGAUUCUGGUGAAUCUGCGAAUUCUGCUGUAUAUCUC

Variants of: B1
Assay: self-cleavage, relative activity (ratio to wild type); higher = more cleavage; in vitro, sequencing
Summary of the method: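 Relative activity was defined as the cleaved/total read fraction for a variant divided by the same fraction for the unmutated ribozyme. CPEB3 self-cleaving ribozyme libraries were made by rounds of error-prone PCR, barcoded, and transcribed in vitro with T7 RNA polymerase for 5 hours at 37°C, and cleavage ran through transcription plus a 15 min DNase I step before EDTA. Illumina sequencing of template-switched reverse transcripts gave the reads, and DNA sequencing mapped the barcodes. Averages come from three batches, using variants with at least 5 reads.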

Variant	self-cleavage
UAACAGGGGGCCACAGCAGGGGCGUUCACGUCGCAGCCCCUGCCAGUUUCUGGUGAAUCCGCGAAUUCUGCUGUAUAUCUC	0.22
UAACAGGGGGCCACAGCAGGAGCGUUCUCGUCGCUGCCCCUGUCAGAUUCUGGUGAAUCUGCGAAUCCUGCUGUAUAUCUC	0.25
UAACAGGGGGCCACAGCAGGGGCGUUAACGUCGCUGCCCCCGUCAGAUUCUGGUGAAUCUGCGAAUUCUGCUGUAUAUCUC	0.17
UAACAGGGGGCCACAGCAGGGGCAUUCACGUCGCAGCCCCCGUCAGAUUCUGGUGAAUCUGCGAGUUCUGCUGUAUAUCUC	0.07
UAACAGGGGGCCACAGCAGGGGCGUUCACGUCGCAGCCCCUGUCAGAUUCUGGUGAAUCUGCGAAUUCUACUGUAUAUCUC	0.4
UAACAGGGGGCCACAGCAGGAGCGUUCGCGUCGCGGCCCCUGUCAGAUUCUGGUGAAUCUGCGAAUUCUGCCGUGUAUCUC	1.04
UAACAGGGGGCCACAGCAGGAGCGUUCGCGUCACGGCCCCUGUCAGAUUCUGGUCAAUCUGCGAAUUCUGCUGUAUAUCUC	0.04
UAACAGGGGGCCACAGCAGGGGCGUUCACGCCGCAGCCCCUGUCAGAUUCUGGUGAAUCUGCGAAUUCUGCUGUAUAUCUC	0.26
UAACAGGGGGCCACAGCAGGAGCGUUCGUGUCGCAGUCCCUGUCAGAUCCUGGUGAAUCUGCGAAUUCUGCUGUAUAUCUC	0.13
UAACAGGGGGCCACAGCAGGGGCGUUCACGUCGCAGCCCCUGUCAGAUUCUGGUGAAUCUGCGAAUUCUGCUGUGUAUCUC	0.43
UAACAGGGGGCCACAGCAGGAGCGUUCGCGUCGCAGCCCCUGUCAGAUCCUGGUGAAUCUGCAAAUUCUGCUGUAUAUCUC	0.27
UAACAGGGGGCCACAGCAGGAGCGUUCGCGUCGCAGCCCCUGUCAGAUACUGGUGAAUCUGCGAAUUCUGCUGUAUAUCCC	0.15
UAACAGGGGGCCACAGCAGGAGCGUUCUCGUCGCAGCCCCUGCCAGAUUCUGGCGAAUCUGCGAAUUCUGCUGUAUACCUC	0.06
UAACAGGGGGCCACAGCAGGAGCGUUCACGUCGCGGCCCCUGUCGGAUUCUGGUGAAUCAGCGAAUUCUGCUGUAUAUCUC	0.71
UAACAGGGGGCCACAGCAGGGGCGUCCACGUCGCAGCCCCUGUCAGAUUCUGGUGAAUCUGCGAAUUCUGCUGUAUAUCUC	0.41
UAACAGGGGGCCACAGCAGGGGCGUACACGUCGCAGCCCCUGUCAGAUUCUGGUGAAUCUGCGAAUUCUGCUGUAUAUCUC	0.47
UAACAGGGGGCCACAGCAGGUGCGUUCACGUCGCAGUCCCUGUCAGAUUCUGGGGAAUCAGCGAAUUCUGCUGUAUAUCCC	0.18

Variant	self-cleavage
UAACAGGGGGCCACAGCAGGGGCGUUCAUGUCGCAGCCCCUGUCGGAUCCUGGCGAAUCUGCGAAUUCUGCUGUAUAUCUC	0.04
UAACAGGGGGCCACAGCAGGAGCGUUCUCGUCGCAGCCCCUAUCAGAUUCUGGUGAAUCUGCGAAUUCUGCUGUAUAUCUC	0.22
UAACAGGGGGCCACAGCAGGAGCGUUCACGUCGCGGCCCCUGUCAGAUUCUGGUGGAUCUGCGAACUCUGCUGUAUACCCC	0.89
UAACAGGGGGCCACAGCAGGGGCGUUCACGUCGCAGCCCCUGUCUGAUUCUGGUGAAUCUGCGAAUUCUGCAGUAUAUCUC	0.08
UAACAGGGGGCCACAGCAGGAGCGUUCACGUCGCGGCCCCUGUCAGAUUCUGGUGAAUCUGCGGAUUCUGCCGUAUAUCUC	1.22
UAACAGGGGGCCACAGCAGGGGCGUCCACGUCGCAGCCCCUGUCAGAUUCUGGUGAAUCUGCGAAUCCUGCUGUAUAUCUC	0.13
UAACAGGGGGCCACAGCAGGAGCGUUCGUGUCGCAGUCCCUGUCAGAUCCAGGUGAAUCUGCGAAUUCUGCUGUAUAUCUC	0.16
UAACAGGGGGCCACAGCAGGAGCGUUCCCGUCGCAGCCCCUGUCAGAUACUGGUGGAUCUGCGAAUUCUGCUGUAUAUUUC	0.16
UAACAGGGGGCCACAGCAGGAGCGUUCACGUCGCGGCCCCUGUCAGAUUCUGGUGAAUCUGUGAAUUCUGCUGUAUAUCUC	0.29
UAACAGGGGGCCACAGCAGGAGCGUUCGCGUCGCAGCCCCUGUCAGAUUCUGGUGAAUCUGCGUACUCUGCUGUAUGUCUC	0.23
UAACAGGGGGCCACAGCAGGAGCGUUCGCGUCGCAGCCCCUGUCAGAUUCUGGUGAAUCUGCGAACUCUGCAGUAUAUCUC	0.09
UAACAGGGGGCCACAGCAGGGGCGCUCACGUCGCAGCCCCUGUCAGAUUCCGGUGAAUCUGCGAAUUCUGCUGUAUAUCUC	0.36
UAACAGGGGGCCACAGCAGGAGCGUUCGCGUCGCAGCCCCUGCCAGAUUCUGGUGAACCUGCGAAUUCUGCUGUAUAUCUC	0.23
UAACAGGGGGCCACAGCAGGAGCGUUCGCGUCGCAGCCCCUGUCAGAUUCUGGUGAAUCUGCGAAUUCUGCUGUACAUCUC	0.53
UAACAGGGGGCCACAGCAGGGGCGUGCACGUCGCAGCCCCUGUCAGAUUCAGGUGAAUCUGCGAAUUCUGCUGUAUAUCUC	0.06
UAACAGGGGGCCACAGCAGGGGCGUCCACGUCGCAGCCCCUGUCAGAUUCUGGUGAAUCGGCGAAUUCCGCUGUAUAUCUC	0.05
UAACAGGGGGCCACAGCAGGGGCGAUCACGUCGCAGCCCCUGUCAGACUCUGGUGAAUCUGCGGACUCCGCUGUAUAUCUC	0.31
